The other results are listed elsewhere or left out. Values were computed here from the reads of four pooled replicates and scatter widely.
Target: T1, Pho4 (S. cerevisiae) (UniProt P07270)
T1 sequence: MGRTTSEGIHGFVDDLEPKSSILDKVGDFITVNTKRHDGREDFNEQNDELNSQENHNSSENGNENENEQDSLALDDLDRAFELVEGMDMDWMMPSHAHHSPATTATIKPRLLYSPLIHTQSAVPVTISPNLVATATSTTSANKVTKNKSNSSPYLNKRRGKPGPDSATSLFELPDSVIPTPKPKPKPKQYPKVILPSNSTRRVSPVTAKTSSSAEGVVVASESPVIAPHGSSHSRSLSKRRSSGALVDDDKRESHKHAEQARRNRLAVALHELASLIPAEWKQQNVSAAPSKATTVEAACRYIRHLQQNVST
Test: relative binding free energy (BET-seq); higher = weaker binding
Details: reference: library average

Relative binding free energy, -0.01 kcal/mol:
GGGGTCACGTGTCTAG
CGTGCCACGTGTGTAT
GTGATCACGTGGCTTG
GAGGACACGTGGGGAA
TTTTCCACGTGTGATG
TAAAGCACGTGATGAG
TCGGACACGTGGTGGA
TGAGGCACGTGTAAAG
TTTAGCACGTGTGCTT
GTAGACACGTGTTAAG

Relative binding free energy, 0.05 kcal/mol:
TTTTGCACGTGCATGT
TGAAACACGTGTGTTT
CTTTGCACGTGATGGT
TTCTACACGTGTTGTT
ATCGACACGTGGTGAG
AGCAACACGTGTGGTG

Relative binding free energy, -0.29 kcal/mol:
TTACGCACGTGGTGTA

Relative binding free energy, -0.18 kcal/mol:
GGTACCACGTGGGGCG
TGAGCCACGTGGGTAG
CTTGGCACGTGTTGAA

Relative binding free energy, 0.35 kcal/mol:
GTGTTCACGTGTGAGG

Relative binding free energy, 0.43 kcal/mol:
TTCTTCACGTGTCTTG
ATTTTCACGTGACTGC

Relative binding free energy, 0 kcal/mol:
ATTGGCACGTGATTTA
ATGCGCACGTGTCTGT
ATTTGCACGTGGAGTT
TGAGACACGTGGTGCA
TACGGCACGTGCCGGG
ATATGCACGTGGATTA
CGATGCACGTGTTGTT

Relative binding free energy, 0.24 kcal/mol:
AGGGTCACGTGAGACG
GGGCACACGTGTGGTC

Relative binding free energy, -0.05 kcal/mol:
GGAGGCACGTGGTGGT
CTTAGCACGTGGTAGA
TAGAACACGTGTGTTA

Relative binding free energy, -0.19 kcal/mol:
GGAGGCACGTGGTCTG
TTAGGCACGTGGGTTC

Relative binding free energy, -0.02 kcal/mol:
CATAGCACGTGGATGG
GTTACCACGTGTGTGG
TGTAACACGTGTTCTT
ATATCCACGTGTTTTT

Relative binding free energy, 0.08 kcal/mol:
ATATTCACGTGGTTCG
GGTGTCACGTGGTAGA
GCGCACACGTGGAGGG
GAGGACACGTGTTGAT
TATTACACGTGTTTGT
ATGTACACGTGGCGGA

Relative binding free energy, 0.26 kcal/mol:
GATTACACGTGATTGG

Relative binding free energy, -0.28 kcal/mol:
AGGGCCACGTGGGGGC

Relative binding free energy, 0.31 kcal/mol:
AAGTTCACGTGGATTT
TCCGTCACGTGAGTGT
GTGTTCACGTGTTTAT
TTGTCCACGTGAGTTT
GGTTACACGTGTTTTT
GGTCTCACGTGGTGAG
GGCTTCACGTGGCGGG
GTTGTCACGTGATTGT

Relative binding free energy, -0.25 kcal/mol:
AAAAACACGTGGGGGG

Relative binding free energy, -0.2 kcal/mol:
AGGTGCACGTGGGGGA
GGTCGCACGTGGCGGG
AGTCACACGTGGGCGG
TGGAGCACGTGCCTGG

Relative binding free energy, -0.07 kcal/mol:
GTAAGCACGTGTGTAG

Relative binding free energy, 0.4 kcal/mol:
ATATTCACGTGAAGTC

Relative binding free energy, 0.1 kcal/mol:
GGTTACACGTGGATGA
CTTTGCACGTGTGAAG
AATGTCACGTGTTTCT

Relative binding free energy, 0.33 kcal/mol:
TATATCACGTGATGGC
TGATTCACGTGGAGGA
TGTATCACGTGAGATA

Relative binding free energy, 0.23 kcal/mol:
CGGTTCACGTGGGGCG
GTTTACACGTGTTAGG
GCGTTCACGTGGTTAA
GGTTTCACGTGAACGG

Relative binding free energy, 0.37 kcal/mol:
ATTATCACGTGAGTTA
GGTCTCACGTGAATGG

Relative binding free energy, 0.13 kcal/mol:
AGGGTCACGTGTAAGG
ATGAACACGTGATAGT
TGTCACACGTGAGAGG
ACTGGCACGTGAGTTT
TCAATCACGTGATTGT

Relative binding free energy, 0.09 kcal/mol:
TTGTACACGTGTGAGT
GTTATCACGTGCGGTG
TAGTTCACGTGGGGTC

Relative binding free energy, 0.32 kcal/mol:
GGTTTCACGTGTTTTA

Relative binding free energy, -0.04 kcal/mol:
ATATGCACGTGGGAAA

Relative binding free energy, 0.44 kcal/mol:
CTGTTCACGTGAATTA
GTGCCCACGTGAAGTT

Relative binding free energy, 0.14 kcal/mol:
AAGGGCACGTGAGTGC
TGCATCACGTGTAGTT

Relative binding free energy, 0.06 kcal/mol:
TGGTCCACGTGTTAGT
GGTGACACGTGACGTG
GTGTACACGTGGGATA
AAGGACACGTGGTAGA

Relative binding free energy, 0.17 kcal/mol:
TGTATCACGTGCGGGA
TGCTTCACGTGGTGAT

Relative binding free energy, -0.14 kcal/mol:
TTATGCACGTGTACTG

Relative binding free energy, 0.03 kcal/mol:
AATAACACGTGGCGGT
ATCTGCACGTGGTGAG
GGGTGCACGTGTGTAT
GTTAGCACGTGCATTT
GTTTACACGTGGCATT
GGGGCCACGTGACGTG
CGCGGCACGTGTCTGG
GTATGCACGTGTACTG

Relative binding free energy, -0.11 kcal/mol:
AGTGGCACGTGTTGCG
TTTTGCACGTGCGTCG
TATGGCACGTGGACGA
TGACGCACGTGTGGGC

Relative binding free energy, -0.27 kcal/mol:
CTGTCCACGTGGGTGG
ACAAGCACGTGGGGGA

Relative binding free energy, 0.34 kcal/mol:
CGTAACACGTGATGAT
TGGCTCACGTGTCAGG

Relative binding free energy, 0.12 kcal/mol:
TAGATCACGTGTTGGC

Relative binding free energy, 0.29 kcal/mol:
TAACTCACGTGAGTTG
TAGCTCACGTGTGAGT
CGGTTCACGTGATAGT

Relative binding free energy, 0.22 kcal/mol:
TGCTTCACGTGGATTG
TGCCGCACGTGATATG
TAGTTCACGTGCATAG

Relative binding free energy, -0.08 kcal/mol:
GTTAGCACGTGGATAA
GCTGGCACGTGTTTGG
TTTTGCACGTGGCTGA
AGTGTCACGTGCTATT
TGAGGCACGTGTGGAG
AGTTCCACGTGGGTCG

Relative binding free energy, 0.21 kcal/mol:
GCCGTCACGTGTGGTA
GTATTCACGTGGGATA
TACTTCACGTGAGTGT
ATGATCACGTGTCAGT
GGAGTCACGTGACGGT
TACGTCACGTGATTGT

Relative binding free energy, 0.16 kcal/mol:
AGAATCACGTGTTGGG
GGGAACACGTGATAGG

Relative binding free energy, -0.06 kcal/mol:
TTGGACACGTGGGACA
TTGGACACGTGGTGTG
TGTATCACGTGGGGAA
TTCGGCACGTGTGGGA
TTCGGCACGTGATAGA
TTGGCCACGTGCAGGT
TGACGCACGTGTTTTA

Relative binding free energy, -0.13 kcal/mol:
GGTGGCACGTGGGGGG
TTTAACACGTGGCGGG

Relative binding free energy, 0.36 kcal/mol:
GTAAACACGTGAAGGT

Relative binding free energy, 0.04 kcal/mol:
ATTGACACGTGGACTG
GGGAGCACGTGTGAGG

Relative binding free energy, 0.3 kcal/mol:
GCCTTCACGTGGAGTG
GGGTTCACGTGGGGAG
TCATTCACGTGTGGAA

Relative binding free energy, 0.39 kcal/mol:
GAATTCACGTGAGTTA

Relative binding free energy, -0.16 kcal/mol:
GCAAGCACGTGGGTAG
TAGGGCACGTGTTATG
ATCGGCACGTGGGTGG
GGCGGCACGTGGGTAA
AGGGCCACGTGGTTCG
CTGGCCACGTGGGTGT
TCGGGCACGTGGTTCA

Relative binding free energy, -0.21 kcal/mol:
TGTAGCACGTGGGGGA

Relative binding free energy, -0.17 kcal/mol:
CAAGGCACGTGTGTGA
GTGTGCACGTGGTTAA

Relative binding free energy, 0.07 kcal/mol:
TAGGTCACGTGTTTAC
CTGTTCACGTGGGTGG
GGATGCACGTGTTGGT
TGTCACACGTGGTACG
GGGGTCACGTGTACGC
ATGTGCACGTGGAAGT
TGCGTCACGTGGTACG

Relative binding free energy, -0.23 kcal/mol:
ACGGGCACGTGGTGAG

Relative binding free energy, 0.15 kcal/mol:
AGGTTCACGTGCGCGG
GGGAGCACGTGTCGTT
TCATGCACGTGAGGGT
TCGGTCACGTGAGGTA

Relative binding free energy, 0.01 kcal/mol:
TCGTACACGTGGATTG
TACTACACGTGTGGGT
GAGATCACGTGGTCGT
TTAAGCACGTGTAGAG
GGGCGCACGTGTTGGT
AGAGGCACGTGATGGA
GAATGCACGTGGAGTG

Relative binding free energy, -0.12 kcal/mol:
ATTAACACGTGTAGTG

Relative binding free energy, -0.03 kcal/mol:
TTGTACACGTGTTACG
AGGGACACGTGGGACT
TTGATCACGTGGGGAC

Relative binding free energy, 0.11 kcal/mol:
ATGTTCACGTGGTAGG
AGGTCCACGTGTTTTT
TTGGTCACGTGTAGTT
CGGTTCACGTGGGGCA
CTAATCACGTGGATTT

Relative binding free energy, 0.18 kcal/mol:
TGCGGCACGTGAGTCA
GTTAGCACGTGAAATG
ATTTTCACGTGGGGGG
GATCTCACGTGTTTTG
AGGTGCACGTGAAGAA
TTGATCACGTGGACTT
TTAGTCACGTGAAGTA

Relative binding free energy, -0.38 kcal/mol:
CGAGGCACGTGCGTGT

Relative binding free energy, 0.02 kcal/mol:
TTTTGCACGTGCGGGC
TGTGACACGTGGAGCG
TTGAGCACGTGATTGG

Relative binding free energy, 0.25 kcal/mol:
AGTATCACGTGAGATT
ATGATCACGTGATAGT
GTGAGCACGTGAGGGC

Relative binding free energy, 0.28 kcal/mol:
TGGATCACGTGGCATT
TTTTACACGTGATGAG
TTGTTCACGTGTAGAC

Relative binding free energy, -0.24 kcal/mol:
GGAGGCACGTGGGACG

Relative binding free energy, -0.15 kcal/mol:
ATGGGCACGTGCTGAT

Relative binding free energy, -0.1 kcal/mol:
GTGCGCACGTGGTGTA

Relative binding free energy, 0.19 kcal/mol:
TTGGACACGTGTGGGA
GTACACACGTGAGTTG
CTGTTCACGTGGTCTT
AGTGTCACGTGTCAGA
TTGGACACGTGAGTCT

Relative binding free energy, 0.41 kcal/mol:
TTATTCACGTGAATTG
TGTGTCACGTGAAATT
ATATTCACGTGAATCG

Relative binding free energy, -0.09 kcal/mol:
TTAGGCACGTGTTCGT
GAGGGCACGTGCGTAA
TACGCCACGTGTGGGG
TAGTGCACGTGGTAGC
TTGAGCACGTGCCGGT
TCCGGCACGTGGTGGA

Relative binding free energy, 0.2 kcal/mol:
TGATTCACGTGTCTGG
GAAATCACGTGGTGTT
TTGGTCACGTGCGATA
GGGAACACGTGTGAGT
TGCAGCACGTGATGGT
GGGCGCACGTGAGGAA
AGGATCACGTGTCAGG
GCGTTCACGTGGATGG

Source: the BET-seq Pho4 binding data (Le et al. 2018)
